Experimental data as given in PubChem BioAssay AID463173 (ICCB-Longwood Screening Facility, Harvard Medical School, 2010).
About 1,700 (3.3%) of roughly 52,000 compounds were called active. No stated cut-off is given here; in the data, active means survival mostly below about 52% (no sharp cut-off); inactive means mostly above about 56%. The list shows a part of the results.

These compounds were tested on Wild type (assay: growth inhibition of S. aureus wild type versus tarO mutant, primary screen, teichoic acid synthesis inhibitors, RN4220, OD600 (AID 463173)). Settings: S. aureus RN4220 wild type/DeltatarO growth, OD600, 18 h, stronger effect = lower value, screened at 18.75 µg/mL (by protocol).
For `CCOC(=O)c1sc(NC(=O)C2c3ccccc3Oc3ccccc32)c(C#N)c1C`, the survival was inactive: 94%.
`CCOC(=O)c1c(C)[nH]c(C)c1S(=O)(=O)N1CCCC(C(=O)NCc2cccc(OC)c2)C1` (stereo not given) was tested, and the survival was inactive: 77%.
For `Cc1cc(C(=O)N2CCN(c3cccc(C)c3C)CC2)c2c(C)nn(-c3ccccc3)c2n1`, the survival was inactive: 121%.
`Cc1ccc(C(=O)c2cn(CC(=O)NCc3ccccc3Cl)c3nc(C)ccc3c2=O)cc1` was tested, and the survival was inactive: 88%.
`CCCC(=O)NC(C)c1nc2ccccc2n1Cc1ccccc1` (stereo not given) was tested, and the survival was inactive: 96%.
With `COc1ccc(S(=O)(=O)N2CCCN(CC(=O)Nc3ccc(OC)cc3OC)CC2)cc1` the survival was inactive: 75%.
In the case of `COc1ccccc1CNC(=O)CCC1N=C2c3ccccc3N=C(SCC(=O)Nc3ccc(N(C)C)cc3)N2C1=O` (stereo not given), the survival is reported as inactive: 80%.
`COc1ccc2nc(Cl)c(CN(C(=O)c3ccco3)C3CCCC3)cc2c1` was tested, and the survival was inactive: 111%.
For `C=CCN1CCN(C(c2ccccc2Cl)c2nnnn2C2CCCCC2)CC1` (stereo not given), the survival was inactive: 100%.
For `Cc1cccc(OCC(=O)Nc2cc(-c3ccccc3F)nn2-c2ccccc2)c1`, the survival was inactive: 82%.
`Cc1cc(Cl)ccc1NC(=O)Cn1nnc2sc(-c3ccccc3)cc2c1=O` was tested, and the survival was inactive: 113%.
In the case of `COc1ccc(OC)c2sc(N3CCN(C(=O)CCS(=O)(=O)c4ccc(F)cc4)CC3)nc12`, the survival is reported as inactive: 78%.
With `O=C(NCC1CCCO1)Nc1c[nH]c2c(Cl)cccc2c1=O` (stereo not given) the survival was inactive: 111%.
For `Nc1ccc2c(c1)OC1(CCCCC1)O2`, the survival was inactive: 109%.
`CC(C)c1ccc(Nc2ncnc3onc(-c4ccc(F)cc4)c23)cc1` was tested, and the survival was inactive: 89%.
With `COc1cc(NC(=O)N2CCC(CN3CCOCC3)CC2)cc(OC)c1OC` the survival was inactive: 81%.
In the case of `COC(=O)c1ccc2c(c1)N(Cc1ccc(Cl)cc1)C(=O)c1ccccc1S2`, the survival is reported as inactive: 77%.
`Cc1nc2nc(SCC(=O)NC3CCCCC3)nn2c(C)c1Cc1ccccc1Cl` was tested, and the survival was inactive: 57%.
`CCCCn1c(SCC(=O)N2CCCC2)nc2ccccc2c1=O` was tested, and the survival was inactive: 100%.
In the case of `CCCCn1nc(NC(=O)c2cccc(Cl)c2)c2cc3cccc(C)c3nc21`, the survival is reported as inactive: 88%.
For `COc1cccc(N2CCN(C(=O)c3cc4c(=O)oc5ccc(C)cc5c4s3)CC2)c1`, the survival was inactive: 87%.
For `CCS(=O)(=O)N1CCN(Cc2ccccc2)CC1`, the survival was inactive: 119%.
`CCCn1c2ccccc2c2cnn(CC(=O)N3CCCC(C)C3)c(=O)c21` (stereo not given) was tested, and the survival was inactive: 75%.
`Cc1ccc(CNC(=O)C2CCN(S(=O)(=O)c3cn(C)cn3)CC2)cc1` was tested, and the survival was inactive: 82%.
In the case of `O=C(NCCCc1nc2ccccc2n1Cc1ccc(Cl)cc1)C1CCCCC1`, the survival is reported as inactive: 92%.
With `CC(C)c1ccc(N(CC(N)=O)S(C)(=O)=O)cc1` the survival was inactive: 101%.
With `CCc1ccccc1-n1c(C)nc2cc(C(=O)NCCc3ccc(Cl)cc3)ccc21` the survival was inactive: 65%.
`CCS/C=C/C#CC1(O)CCCCC1` was tested, and the survival was inactive: 116%.
In the case of `Cc1ccc(-n2ncc(C(=O)NCCN3CCCC3)c2C2CCN(C(=O)OC(C)(C)C)CC2)cc1C`, the survival is reported as inactive: 71%.
For `CC(C)N(Cc1ccccc1)S(=O)(=O)c1ccc(-c2cc(C(F)(F)F)on2)s1`, the survival was inactive: 80%.
With `COCCCNC(=O)CCc1c(C)nc2nc(-c3cc(OC)cc(OC)c3)nn2c1C` the survival was inactive: 72%.
In the case of `COc1ccc2[nH]c(=O)c(CN(Cc3ccco3)C(=S)NCc3ccco3)cc2c1`, the survival is reported as inactive: 117%.
In the case of `CC(C)OCCCNC(=O)CN1C(=O)COc2ccc(S(=O)(=O)N3CCCCCC3)cc21`, the survival is reported as inactive: 98%.
In the case of `CCCC(c1nnnn1CS(=O)(=O)c1ccc(C)cc1)N1CCC(C(N)=O)CC1` (stereo not given), the survival is reported as inactive: 102%.
`COc1ccc(-n2c(C)c(C(C)=O)c3cc(OC(=O)COc4ccccc4)ccc32)cc1` was tested, and the survival was inactive: 73%.
With `Cc1cccc(-c2cc3nc(C)c(C)c(N4CCC5(CC4)OCCO5)n3n2)c1` the survival was inactive: 100%.
For `CCC(Oc1ccccc1)C(=O)Nc1cc(-c2cccc(C)c2)nn1-c1ccccc1` (stereo not given), the survival was inactive: 89%.
With `CCOCCCNC(=O)c1cnc2sc(N3CCCCC3)nn2c1=O` the survival was inactive: 71%.
In the case of `CCCCCn1c(CCNC(=O)c2ccc(F)cc2)nc2ccccc21`, the survival is reported as inactive: 89%.
`Cc1cc(-c2ccc(C)c(S(=O)(=O)NCc3cccc(Br)c3)c2)on1` was tested, and the survival was inactive: 99%.
In the case of `CCCS(=O)(=O)N1CC(=O)N(c2cccc(Cl)c2C)C(C)(C(=O)NC2CCCC2)C1` (stereo not given), the survival is reported as inactive: 71%.
`Cc1cc(C)cc(OCC(=O)N(Cc2cccs2)c2ccc(Cl)cc2)c1` was tested, and the survival was inactive: 81%.
For `N#Cc1cn(CC(=O)N2CCCC2)c2ccccc12`, the survival was inactive: 112%.
`Cc1c(N)c(C)c(N)c(C)c1N` was tested, and the survival was inactive: 105%.
`Cc1ccc2onc(CC(=O)N3CCN(c4cc(Cl)ccc4C)CC3)c2c1` was tested, and the survival was inactive: 109%.
With `Fc1ccc(-c2nn(-c3ccccc3Cl)c3c2cnc2ccccc23)cc1` the survival was inactive: 113%.
In the case of `Cc1ccc(CNC(=O)Cc2c(C)c3c(cc(C)c4c(C)coc43)oc2=O)cc1`, the survival is reported as inactive: 111%.
With `COc1cccc(CNC(=O)Cn2ncn3nc(-c4cccs4)cc3c2=O)c1OC` the survival was inactive: 95%.
For `C#CCn1cc(/C=C(/C#N)C(=O)Nc2ccccc2)c2ccccc21`, the survival was inactive: 102%.
`COc1ccc(-n2nc(C(=O)N3CCN(c4cccc(C)c4C)CC3)c3c4ccccc4n(C)c3c2=O)cc1Cl` was tested, and the survival was inactive: 81%.
`COc1ccc(CNC(=O)c2nc(SCc3ccccc3F)ncc2Cl)cc1` was tested, and the survival was inactive: 90%.
`O=C(c1ccc2c(c1)N(Cc1ccc(F)cc1)C(=O)c1ccccc1S2(=O)=O)N1CCCC1` was tested, and the survival was inactive: 91%.
`CCC(=O)N1CCCc2cc(S(=O)(=O)N3CCC(C(=O)NC4CCCCC4)CC3)ccc21` was tested, and the survival was inactive: 136%.
In the case of `COc1ccccc1Cn1c(CNS(=O)(=O)c2ccc(C(C)C)cc2)nc2cccnc21`, the survival is reported as inactive: 75%.
In the case of `CC(NC(=O)c1ccc2c(c1)CCN2S(=O)(=O)c1ccccc1)c1ccccc1` (stereo not given), the survival is reported as inactive: 84%.
With `Fc1ccccc1Cc1cn2cc(-c3ccc(Cl)cc3)nc2s1` the survival was inactive: 77%.
`Cc1cccc(OC2CCS(=O)(=O)C2)c1` (stereo not given) was tested, and the survival was inactive: 107%.
For `COc1ccccc1NC(=O)c1oc2ccccc2c1NC(=O)c1cccc(OC)c1OC`, the survival was inactive: 44%.
For `CC(C)Nc1nc(Cl)nc(NNC(=O)C(C)Oc2ccccc2)n1` (stereo not given), the survival was inactive: 103%.
With `CCOC(=O)C1CCC(CN(Cc2ccccc2)S(=O)(=O)c2ccc(Br)cc2)CC1` (stereo not given) the survival was inactive: 77%.
For `Cc1ccccc1Nc1c(-c2cc(Br)ccc2F)nc2ccccn12`, the survival was inactive: 136%.
For `CCOc1ccc(-c2cc(C(=O)Oc3ccc(C#N)cc3)no2)cc1`, the survival was inactive: 77%.
`COc1ccc(/C=C/c2nc(C#N)c(NCc3ccc(F)cc3)o2)cc1OC` was tested, and the survival was inactive: 103%.
In the case of `Cc1cccc(/C=C(\C#N)c2nc3ccccc3c(=O)[nH]2)c1`, the survival is reported as inactive: 85%.
With `COc1cc(NC(=O)CCS(=O)(=O)c2ccc3c(c2)CC(=O)N3C)cc(OC)c1OC` the survival was inactive: 89%.
`O=C(CCS(=O)(=O)c1ccccc1)N(Cc1cccnc1)c1nc2ccc(Cl)cc2s1` was tested, and the survival was inactive: 73%.
`COc1ccc(N2CCN(CCCNC(=O)c3cc(Nc4ccc(OC)cc4OC)nc4ccccc34)CC2)cc1` was tested, and the survival was inactive: 72%.
In the case of `CCCN1Cc2cccc(C(=O)Nc3ccc(C(C)=O)cc3)c2C1=O`, the survival is reported as inactive: 89%.
With `Cc1cccc(-n2c(=O)c3c(c4cc(C)ccc4n3C)n(CC(=O)N3CCCC3)c2=O)c1` the survival was inactive: 120%.
`COc1cccc(C(=O)c2c(N)c(-c3nc(-c4ccccc4)cs3)c3ccccn23)c1` was tested, and the survival was inactive: 98%.
`Cc1cc(C)nc(SCC(=O)Nc2ccc(N3CCOCC3)cc2)n1` was tested, and the survival was inactive: 108%.
For `CCOc1ccc(N(CC)S(=O)(=O)N2CCCC(C(=O)Nc3ccc(C(C)=O)cc3)C2)cc1` (stereo not given), the survival was inactive: 94%.
In the case of `N#CC(C#N)C(CC(=O)c1cccs1)c1ccccc1` (stereo not given), the survival is reported as inactive: 108%.
With `O=C(CN1C(=O)COc2ccccc21)NCCc1ccc(Cl)cc1` the survival was inactive: 73%.
`CCc1ccc(-n2c(=O)c3c4c(sc3n(CC(=O)N3CCCCC3CC)c2=O)CCC4)cc1` (stereo not given) was tested, and the survival was inactive: 68%.
For `CCNC(=S)N1CCC(C(=O)c2ccc3c(c2)OCCO3)CC1`, the survival was inactive: 97%.
With `O=C(NC1CC2CCC(C1)N2Cc1nnnn1Cc1ccco1)NC12CC3CC(CC(C3)C1)C2` (stereo not given) the survival was inactive: 108%.
`Cc1c(C(=O)Nc2cccc(Cl)c2)sc2nc3n(c(=O)c12)N=C(c1cccc(Br)c1)CS3` was tested, and the survival was inactive: 72%.
With `Cc1ccc(NC(=O)Cn2c(=O)n(Cc3nc(C)no3)c(=O)c3ccccc32)c(Cl)c1` the survival was inactive: 78%.
In the case of `Cc1cccc(C)c1OCCCn1c(CCNC(=O)C2CCCCC2)nc2ccccc21`, the survival is reported as active: 28%.
In the case of `Cc1c(CCC(=O)NCCc2ccc(Cl)cc2)c(=O)oc2c(C)c(O)ccc12`, the survival is reported as inactive: 93%.
For `CCOc1ccccc1NC(=O)c1nc(SC(C)C)ncc1Cl`, the survival was inactive: 117%.
In the case of `CCc1ccc(NC(=O)CN2C(=O)C(c3ccc(Cl)cc3)=NC23CCCCC3)cc1`, the survival is reported as inactive: 81%.
For `Cc1c(CNC2CCCCC2)c(C(=O)O)c(C)n1Cc1cccc(Cl)c1`, the survival was inactive: 89%.
For `COc1ccc(CNC(=O)c2ccc(N3CCCC3)c(NC(=O)NCc3ccc(C)cc3)c2)cc1`, the survival was inactive: 75%.
In the case of `Cc1nn2c(-c3cccc(NC(=O)c4ccccc4)c3)nnc2c2ccccc12`, the survival is reported as inactive: 85%.
In the case of `COc1ccc(-c2cn3c(n2)sc2cc(C(=O)Nc4ccc(C)c(C)c4)ccc23)cc1`, the survival is reported as inactive: 86%.
For `Cc1cccc(N2CCN(C(=O)CCc3nnc4n(CC(C)C)c(=O)c5ccccc5n34)CC2)c1C`, the survival was inactive: 86%.
With `COc1ccc(-c2cc(C)no2)cc1S(=O)(=O)N1CCOc2ccccc21` the survival was inactive: 80%.
With `CC(C)N(C=O)C1(C(=O)NC2CCCCC2)CCCCC1` the survival was inactive: 103%.
